Test results: patent publication US12290565B2, “Methods of using anti-PSGL-1 antibodies in combination with JAK inhibitors to treat T-cell mediated inflammatory diseases or cancers” (AltruBio Inc., priority 2021, dated 2025)

Test system: activated T cells
Experiment: Fixed-ratio combination cytotoxicity assay, ruxolitinib + LH10, c43B6 or h9F9
Format: cell-based
Settings: antibody with cross-linker
Experimental: PBMCs were obtained from peripheral blood of healthy donors. Isolation was performed by density centrifugation of blood on Ficoll (GE Healthcare, Cat #17-1440-03). The harvested PBMCs were used for the generation of activated T cells by incubating with PHA (3 μg/mL, SIGMA, Cat: L2769-10 mg) in RPMI-1640 medium (10% FBS, 1% Penicillin/Streptomycin and 2-Mercaptoethanol) for 2 days, followed by maintenance in medium containing recombinant human Interleukin-2 (5 ng/mL, R&D Systems, Cat. #202-IL-050) for an additional between about 4˜6 days.
In addition to 15A7H, anti-PSGL-1 antibodies LH10, c43B6 and h9F9 were tested for the ability to induce cell death in activated T cells. The purpose of this study was to determine whether apoptosis inducing anti-PSGL-1 antibodies plus ruxolitinib would result in a better cytotoxic effect on activated T cells. The combinatorial effect was evaluated using Chou-Talalay median effect analysis using fixed ratios of antibodies and ruxolitinib in cytotoxicity assays. […]
Cell apoptosis was determined as described in Example 1, and the combinatorial drug effect combination indexes (CI) were analyzed using CalcuSyn (Biosoft, Ferguson, MO, USA), which allows automated simulation of synergism or antagonism, where CI<1 indicates synergy, CI=1 indicates additivity, and CI>1 indicates antagonism.

B1: c43B6: anti-PSGL-1 antibody; heavy chain SEQ ID NO:27, light chain SEQ ID NO:31 (antibody)
heavy: EVQLQQSGPDLVKPGALVKISCKASGYSFTAYYIHWVKQSHGKSLEWIGRVNPNTGGTSYNPKFKGKAILNVDKSSSTAYMELRSLTSEDSAVYYCARSGSPYYRYDDWGQGTTLTVSSASTKGPSVFPLAPCSRSTSESTAALGCLVKDYFPEPVTVSWNSGALTSGVHTFPAVLQSSGLYSLSSVVTVPSSSLGTKTYTCNVDHKPSNTKVDKRV[human IgG4 Fc with S228P (EU numbers) omitted here]
light: ENVLTQSPAIMSASPGEKVTMTCRASSTVNSTYLHWFQQKSGASPKLWIYGSSNLASGVPARFSGSGSGTSYSLTISSVEAEDAATYYCQQYSGYPLTFGAGTTLELKRTVAAPSVFIFPPSDEQLKSGTASVVCLLNNFYPREAKVQWKVDNALQSGNSQESVTEQDSKDSTYSLSSTLTLSKADYEKHKVYACEVTHQGLSSPVTKSFNRGEC
cytotoxicity ability in activated T cells: had cytotoxicity ability
